Assay results published in ChEMBL document CHEMBL1909046, “DrugMatrix in vitro pharmacology data”.

Columns and labels:
Cytochrome P450 2E1 = Cytochrome P450 2E1 (Homo sapiens, UniProt P05181); conditions: bti-tn-5b1-4
Cytochrome P450 3A4 = Cytochrome P450 3A4 (Homo sapiens, UniProt P08684); conditions: bti-tn-5b1-4
[1] = target: Voltage-gated inwardly rectifying potassium channel KCNH2 (Homo sapiens, UniProt Q12809); conditions: hek293
Cytochrome P450 2C19 = Cytochrome P450 2C19 (Homo sapiens, UniProt P33261); conditions: bti-tn-5b1-4
Sequence of Cytochrome P450 2C19 (P33261 whole entry): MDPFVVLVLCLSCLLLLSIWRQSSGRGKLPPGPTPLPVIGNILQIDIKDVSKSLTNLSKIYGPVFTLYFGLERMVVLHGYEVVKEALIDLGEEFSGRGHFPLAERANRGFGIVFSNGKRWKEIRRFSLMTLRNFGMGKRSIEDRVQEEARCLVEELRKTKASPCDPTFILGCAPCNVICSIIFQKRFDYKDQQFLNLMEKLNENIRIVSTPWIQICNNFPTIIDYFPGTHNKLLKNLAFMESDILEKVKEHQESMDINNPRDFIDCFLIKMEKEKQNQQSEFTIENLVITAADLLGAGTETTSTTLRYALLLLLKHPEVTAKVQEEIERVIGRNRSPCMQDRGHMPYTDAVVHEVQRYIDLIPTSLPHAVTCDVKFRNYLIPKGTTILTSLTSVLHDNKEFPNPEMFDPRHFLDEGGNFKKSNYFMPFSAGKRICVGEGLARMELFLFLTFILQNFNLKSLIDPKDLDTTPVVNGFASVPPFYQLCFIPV

Cytochrome P450 1A2 = target: T1, Cytochrome P450 1A2 (Homo sapiens, UniProt P05177); conditions: bti-tn-5b1-4
T1 sequence (P05177 whole entry): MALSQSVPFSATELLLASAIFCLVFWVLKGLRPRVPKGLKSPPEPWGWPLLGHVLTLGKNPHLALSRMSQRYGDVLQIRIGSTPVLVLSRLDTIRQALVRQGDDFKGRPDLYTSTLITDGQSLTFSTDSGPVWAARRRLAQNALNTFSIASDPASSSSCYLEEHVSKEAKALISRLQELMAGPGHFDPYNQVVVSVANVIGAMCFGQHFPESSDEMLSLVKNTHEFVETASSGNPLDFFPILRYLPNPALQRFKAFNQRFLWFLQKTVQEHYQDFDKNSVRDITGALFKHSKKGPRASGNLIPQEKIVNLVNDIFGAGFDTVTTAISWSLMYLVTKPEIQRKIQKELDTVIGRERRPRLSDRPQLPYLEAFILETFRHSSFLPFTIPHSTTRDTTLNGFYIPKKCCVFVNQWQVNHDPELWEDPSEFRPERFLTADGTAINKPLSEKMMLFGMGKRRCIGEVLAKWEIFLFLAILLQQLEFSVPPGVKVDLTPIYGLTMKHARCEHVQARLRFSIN

Cytochrome P450 2A6 = target: T2, Cytochrome P450 2A6 (Homo sapiens, UniProt P11509); conditions: bti-tn-5b1-4
T2 sequence (P11509 whole entry): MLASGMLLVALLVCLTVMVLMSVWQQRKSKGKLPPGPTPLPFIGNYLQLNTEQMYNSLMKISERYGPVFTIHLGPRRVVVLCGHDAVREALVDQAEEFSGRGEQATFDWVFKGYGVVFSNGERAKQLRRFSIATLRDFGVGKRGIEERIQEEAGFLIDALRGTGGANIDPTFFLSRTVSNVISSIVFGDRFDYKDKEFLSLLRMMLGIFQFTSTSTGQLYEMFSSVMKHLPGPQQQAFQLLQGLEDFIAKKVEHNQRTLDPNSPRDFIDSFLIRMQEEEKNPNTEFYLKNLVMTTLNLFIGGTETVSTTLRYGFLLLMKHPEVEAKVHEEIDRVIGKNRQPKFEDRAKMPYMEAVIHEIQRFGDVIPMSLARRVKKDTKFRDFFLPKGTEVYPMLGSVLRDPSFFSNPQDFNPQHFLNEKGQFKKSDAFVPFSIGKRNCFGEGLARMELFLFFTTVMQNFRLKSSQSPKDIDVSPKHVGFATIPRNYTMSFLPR

Cytochrome P450 2D6 = Cytochrome P450 2D6 (Homo sapiens, UniProt P10635); conditions: bti-tn-5b1-4
Sequence of Cytochrome P450 2D6 (P10635 whole entry): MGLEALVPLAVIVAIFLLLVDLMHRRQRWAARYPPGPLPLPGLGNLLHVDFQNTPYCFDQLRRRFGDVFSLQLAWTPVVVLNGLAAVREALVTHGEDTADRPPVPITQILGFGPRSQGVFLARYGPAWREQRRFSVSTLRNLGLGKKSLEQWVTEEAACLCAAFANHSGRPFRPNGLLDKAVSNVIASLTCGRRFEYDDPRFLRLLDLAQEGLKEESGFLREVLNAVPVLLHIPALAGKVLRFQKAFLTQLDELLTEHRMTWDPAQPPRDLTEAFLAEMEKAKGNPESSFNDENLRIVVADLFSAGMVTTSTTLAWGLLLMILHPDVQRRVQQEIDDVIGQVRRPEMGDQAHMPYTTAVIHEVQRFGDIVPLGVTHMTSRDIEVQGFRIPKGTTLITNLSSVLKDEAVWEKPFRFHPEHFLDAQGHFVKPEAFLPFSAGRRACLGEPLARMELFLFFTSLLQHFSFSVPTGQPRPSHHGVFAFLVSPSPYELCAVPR

Cytochrome P450 2C9 = Cytochrome P450 2C9 (Homo sapiens, UniProt P11712); conditions: bti-tn-5b1-4
Sequence of Cytochrome P450 2C9 (P11712 whole entry): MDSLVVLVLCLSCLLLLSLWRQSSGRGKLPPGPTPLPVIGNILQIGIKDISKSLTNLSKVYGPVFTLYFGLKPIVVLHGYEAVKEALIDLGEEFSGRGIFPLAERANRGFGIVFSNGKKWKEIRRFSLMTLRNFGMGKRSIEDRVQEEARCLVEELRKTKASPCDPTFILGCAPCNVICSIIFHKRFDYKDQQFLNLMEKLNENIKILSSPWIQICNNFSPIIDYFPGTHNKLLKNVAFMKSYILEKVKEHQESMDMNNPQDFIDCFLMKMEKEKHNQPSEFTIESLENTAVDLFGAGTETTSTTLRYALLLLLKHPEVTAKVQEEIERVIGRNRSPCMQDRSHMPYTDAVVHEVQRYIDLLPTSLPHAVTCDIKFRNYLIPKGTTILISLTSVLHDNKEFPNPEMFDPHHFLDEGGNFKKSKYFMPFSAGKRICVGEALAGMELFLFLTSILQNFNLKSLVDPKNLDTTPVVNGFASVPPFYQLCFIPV
Further: in other assays of this panel Not Active means under 50% inhibition at 10 µM.

Sequence of Cytochrome P450 3A4 (P08684 whole entry): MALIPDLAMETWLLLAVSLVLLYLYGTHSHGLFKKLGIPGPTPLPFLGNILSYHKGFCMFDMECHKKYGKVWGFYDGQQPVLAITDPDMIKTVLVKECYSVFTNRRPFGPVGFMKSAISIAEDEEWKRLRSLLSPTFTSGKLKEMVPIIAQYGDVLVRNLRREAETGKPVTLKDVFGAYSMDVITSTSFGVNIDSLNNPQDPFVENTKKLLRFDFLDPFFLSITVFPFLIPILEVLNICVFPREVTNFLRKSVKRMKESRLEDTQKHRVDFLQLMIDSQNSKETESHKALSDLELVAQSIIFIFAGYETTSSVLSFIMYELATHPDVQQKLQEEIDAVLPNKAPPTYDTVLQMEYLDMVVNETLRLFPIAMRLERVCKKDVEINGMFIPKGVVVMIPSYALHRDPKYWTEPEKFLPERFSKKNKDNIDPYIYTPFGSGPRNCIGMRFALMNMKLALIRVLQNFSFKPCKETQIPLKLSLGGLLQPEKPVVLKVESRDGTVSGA
Sequence of Cytochrome P450 2E1 (P05181 whole entry): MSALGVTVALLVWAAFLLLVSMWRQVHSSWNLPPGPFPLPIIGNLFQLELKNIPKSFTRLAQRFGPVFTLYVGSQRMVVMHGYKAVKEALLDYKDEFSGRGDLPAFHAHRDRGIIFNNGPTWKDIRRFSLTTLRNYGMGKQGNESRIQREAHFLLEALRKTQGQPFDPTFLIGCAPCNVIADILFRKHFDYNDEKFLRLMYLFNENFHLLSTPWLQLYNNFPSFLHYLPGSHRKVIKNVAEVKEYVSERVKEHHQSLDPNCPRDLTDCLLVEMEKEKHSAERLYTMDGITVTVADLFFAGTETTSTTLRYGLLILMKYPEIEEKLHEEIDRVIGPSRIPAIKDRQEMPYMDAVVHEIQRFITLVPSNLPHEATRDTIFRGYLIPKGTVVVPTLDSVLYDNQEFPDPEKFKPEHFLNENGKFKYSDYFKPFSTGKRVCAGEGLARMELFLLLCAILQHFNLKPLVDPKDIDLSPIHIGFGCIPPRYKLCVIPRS
Sequence of Voltage-gated inwardly rectifying potassium channel KCNH2 (Q12809 whole entry): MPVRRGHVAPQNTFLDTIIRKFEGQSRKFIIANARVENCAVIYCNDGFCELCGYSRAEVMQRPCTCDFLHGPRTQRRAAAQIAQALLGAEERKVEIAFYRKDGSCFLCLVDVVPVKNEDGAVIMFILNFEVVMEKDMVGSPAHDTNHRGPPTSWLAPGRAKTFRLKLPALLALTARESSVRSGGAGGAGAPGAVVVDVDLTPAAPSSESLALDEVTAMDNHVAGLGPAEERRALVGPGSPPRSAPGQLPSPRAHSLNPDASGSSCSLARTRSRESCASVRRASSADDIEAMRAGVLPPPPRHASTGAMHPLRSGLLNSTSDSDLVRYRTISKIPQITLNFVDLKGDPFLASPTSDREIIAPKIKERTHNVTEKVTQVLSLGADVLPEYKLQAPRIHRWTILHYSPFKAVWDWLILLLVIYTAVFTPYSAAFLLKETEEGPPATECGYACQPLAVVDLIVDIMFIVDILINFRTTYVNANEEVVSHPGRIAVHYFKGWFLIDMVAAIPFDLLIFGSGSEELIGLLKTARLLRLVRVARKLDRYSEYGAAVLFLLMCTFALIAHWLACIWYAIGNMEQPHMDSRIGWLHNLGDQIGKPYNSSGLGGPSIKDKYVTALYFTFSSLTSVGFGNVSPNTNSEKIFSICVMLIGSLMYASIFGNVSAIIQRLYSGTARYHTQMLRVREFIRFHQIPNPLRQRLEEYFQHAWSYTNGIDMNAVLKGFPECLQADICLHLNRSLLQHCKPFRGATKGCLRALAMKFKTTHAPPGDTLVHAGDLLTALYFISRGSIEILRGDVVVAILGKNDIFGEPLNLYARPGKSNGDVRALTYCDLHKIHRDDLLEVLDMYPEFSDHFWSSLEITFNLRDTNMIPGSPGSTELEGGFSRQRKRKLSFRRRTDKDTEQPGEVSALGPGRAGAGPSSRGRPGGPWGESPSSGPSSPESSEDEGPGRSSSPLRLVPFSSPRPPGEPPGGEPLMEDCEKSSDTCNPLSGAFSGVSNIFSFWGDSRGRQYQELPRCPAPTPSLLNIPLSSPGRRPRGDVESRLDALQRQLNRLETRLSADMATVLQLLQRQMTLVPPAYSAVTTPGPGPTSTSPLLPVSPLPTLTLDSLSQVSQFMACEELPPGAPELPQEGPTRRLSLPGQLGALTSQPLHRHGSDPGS

Nc1nc2ccc(OC(F)(F)F)cc2s1 [RILUZOLE]
Not Active: IC50 (Cytochrome P450 2E1) | Ki (Cytochrome P450 2E1) | IC50 (Cytochrome P450 3A4) | Ki (Cytochrome P450 3A4) | IC50 [1] | Ki [1] | IC50 (Cytochrome P450 2C19) | Ki (Cytochrome P450 2C19) | IC50 (Cytochrome P450 1A2) | Ki (Cytochrome P450 1A2) | IC50 (Cytochrome P450 2A6) | Ki (Cytochrome P450 2A6) | IC50 (Cytochrome P450 2D6) | Ki (Cytochrome P450 2D6) | IC50 (Cytochrome P450 2C9) | Ki (Cytochrome P450 2C9)
